Assay results published in PubChem BioAssay AID1963576 (National Center for Advancing Translational Sciences (NCATS), 2024).
The whole screen tested about 46,000 compounds, of which about 60 (0.1%) were called active. Roughly 3% stayed inconclusive and do not appear here. Calls follow the shape of the dose curve; as a rule, active = well fitted inhibition curve with a large enough effect; inconclusive = small, poorly fitted or top-dose-only effect; inactive = no such curve, though single readings can be large or run the other way. Some of the results follow.

Test: Primary qHTS assay for Inhibitors of ovarian cancer metastasis using an organotypic tumor microenvironment (TME) model. Also: nearly all actives have a fitted effect of over 65% in size.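 As to activity change, negative = inhibition: plate controls were DMSO wells for no effect and tomatine positive control wells for full effect.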
Conditions: SKOV3ip1-GFP adhesion/invasion on 3D omental model, fluorescence; series mostly up to 45.8 µM; activity change, negative = inhibition: at the top concentration
Method in brief: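 Adhesion/invasion was scored as fixed GFP-labeled SKOV3ip1 cell counts (488/509 nm), normalized to DMSO and tomatine controls. Cancer cells in serum-free medium, with four compound doses (0.36-46 umol/L), sat 2 hr at RT then 16 hr at 37 C on a 48 hr fibroblast/mesothelial/ECM culture.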

Activity change, negative = inhibition, inactive:
COc1ccccc1NC(=O)c1c(NCc2ccc(OC)c(OC)c2OC)sc2c1CCCC2 12.5%, COc1ccc(NC(=O)c2cc3c(=O)n(Cc4ccco4)ccc3nc2C)cc1 9.79%, Cc1ccc(NC(=O)Nc2ccc3c(c2)N(C)C(=O)c2ccccc2S3)c(C)c1 -8.79%, CN1C(C(=O)c2ccccc2)=C(OC(=O)c2ccc(Br)cc2)c2ccccc2S1(=O)=O -11.1%, Cc1oc2c(c(C)cc3oc(=O)c(CC(=O)NCCc4ccccc4)c(C)c32)c1C 5.39%, O=C(NCCc1csc2nc(-c3ccccc3F)nn12)c1ccco1 -14.6%, Cc1ccc(-c2c(CN3CCN(c4cccc(C(F)(F)F)c4)CC3)csc2C)cc1 4.91%, COc1ccc(N2CCN(S(=O)(=O)CCNC(=O)C(c3ccccc3)c3ccccc3)CC2)cc1 -15.6%, CCOC(=O)c1ccc(Nc2nc3ccccc3nc2NS(=O)(=O)c2ccc(Cl)cc2)cc1 3.7%, CCN1CCN(CCCNC(=O)c2cnn(-c3ccccc3)c2C2CCN(C(=O)OC(C)(C)C)CC2)CC1 -10.5%, O=C1CSC2(C(=O)N(Cc3ccccc3F)c3ccccc32)N1c1ccc(F)cc1 (stereo unspecified) 19.4%, COc1cc(NC(=O)c2ccc(C)cc2)ccc1NC(=O)c1cc2ccccc2o1 1.25%, COc1ccc(CCC(=O)N2CCc3c([nH]c4ccccc34)C2c2ccc(F)cc2)cc1 (stereo unspecified) -5.87%, CCSc1nnc2n(-c3cccc(C)c3)c(=O)c3c4c(sc3n12)CCCC4 9.46%, COc1ccc(-c2cc(C(=O)Nc3cccnc3Cl)no2)cc1OC -0.372%, Cc1ccc2onc(CNC(=O)N3CCN(c4cccc(C)c4C)CC3)c2c1 -1.84%, O=C(NCCc1ccccc1)c1ccc(CS(=O)(=O)c2ccc(Br)cc2)o1 -2.09%, Cc1cc2nn(-c3ccccc3)nc2cc1NC(=O)c1cccc2c(Cl)cccc12 -3.65%, COc1ccc(-n2ccnc2SCC(=O)Nc2ccc(F)cc2F)cc1 -60%, CCN(CCCNC(=O)Cn1ncc2c([nH]c3ccc(C)cc32)c1=O)c1cccc(C)c1 1.75%, CCC(=O)N1c2ccccc2CC1C(=O)NCc1ccc(OC(C)C)cc1 (stereo unspecified) -3.12%, Cc1nc2cccnc2n1-c1cccc(C(=O)N2CCN(c3ccc(Cl)cc3)CC2)c1 -9.68%, CCOc1ccc(-c2nc(SCC(=O)Nc3ccc4c(c3)OCO4)c(-c3ccc(F)cc3)[nH]2)cc1 -20.6%, CCOC(=O)Nc1ccc(NCc2ccc(F)cc2)nc1N -21.5%, Cc1csc2nc(-c3cccc(NC(=O)C(C)C)c3)cn12 -17.7%, Cc1cccc(CCNC(=O)c2sc3nc4n(c(=O)c3c2C)CCCC4)c1 3.99%, COc1ccc(C2CC(=O)Nc3c2c(C)nn3-c2nncc(-c3ccc(C)cc3)n2)c(OC)c1OC (stereo unspecified) -0.0113%, CCOC(=O)c1cccc(NC(=O)[C@@H](c2ccccc2)N2Cc3ccccc3C2=O)c1 -7.08%, O=C1c2oc3ccccc3c(=O)c2C(c2ccccc2)N1Cc1ccc2c(c1)OCO2 (stereo unspecified) 1.9%, CC1COc2c(N3CCN(C)CC3)c(F)cc3c(=O)c(C(=O)O)cn1c23 (stereo unspecified) -4.18%, Cc1cc(C)c(NC(=O)Cc2csc(C)n2)c(Cl)c1 11.9%, CCc1ccc(NC(=O)c2sc(-n3nc(C)c(Cc4ccc(OC)cc4)c3C)nc2C)cc1 1.65%, COc1ccc(N(C)C(=O)CCn2cnc3onc(-c4ccc(F)cc4)c3c2=O)c(OC)c1 20.9%, COc1cccc(NC(=O)CN2C(=O)c3cccnc3Oc3ccc(Cl)cc32)c1 -3.33%, CCOc1ccccc1NC(=O)c1nn(-c2ccc(C)cc2)c(=O)n(C)c1=O -7.29%, CCOc1ccccc1C1C(C(=O)N2CCCCC2)=C(C)Nc2nc3ccccc3n21 (stereo unspecified) 8%, COC(=O)c1c(-c2cccs2)csc1NC(=O)COc1ccc(C(C)(C)C)cc1 2.65%, CCCCN(CCCC)C(=O)c1cc2c(=O)n3cccc(C)c3nc2s1 -7.78%, CC(C)(C)OC(=O)N1CCC(c2c(C(=O)N3CCC(c4ccccc4)C3)cnn2-c2cccc(Cl)c2)CC1 (stereo unspecified) -4.39%, CC(NC(=O)c1ccc2c(c1)CCN2S(=O)(=O)c1ccc(Cl)cc1)c1ccccc1 (stereo unspecified) -14.1%, CCOc1ccc(NC(=O)CSc2nc3c(oc4ccccc43)c(=O)n2-c2ccccc2C)cc1 4.52%, CCCCc1ccc(NC(=O)c2cc3c(=O)n4ccccc4nc3s2)cc1 -3.11%, COc1ccc(-c2cc3ccc(O)c(CN4CCOCC4)c3oc2=O)cc1OC -12.6%, COc1ccc(NC(=O)COc2ccc(-c3nn(C)c(=O)c4ccccc34)cc2)cc1 4.13%, CCOc1ccc(OCC)c(NC(=O)c2nnn(CC(=O)Nc3ccc(C)cc3C)c2N)c1 15.3%, CCOc1ccc(C(=O)N2CCC(c3nc4ccccc4o3)CC2)cc1 -9.24%, CSc1cccc(NC(=O)CN2C(=O)COc3ccc(Cl)cc32)c1 9.61%, Cc1cc2n(n1)C(c1cc(C(C)(C)C)c(O)cc1O)Nc1ccccc1-2 (stereo unspecified) -13.4%, COc1ccc(N(C)C(=O)c2cn(C3CCCCC3)c(=O)c3c2c2ccccc2n3C)cc1 0.411%, CCn1ccc2cc(S(=O)(=O)N3CCCN(C(=O)Nc4cccc(Cl)c4)CC3)ccc21 3.35%, COc1ccccc1NC(=O)C(=O)NCCc1csc(-c2cccc(F)c2)n1 3.12%, CCCCN(CC)CCCNC(=O)CCN1N=C(c2ccc(OC)cc2)CCC1=O -2.43%, CCOC(=O)c1c(S(=O)(=O)N2CCCC(C(=O)Nc3cccc(Cl)c3)C2)c(C)n(C)c1C (stereo unspecified) 3.3%, CCOc1ccc(CNS(=O)(=O)c2cc3c(cc2C)NC(=O)CO3)cc1OC 7.18%, Cc1cc(N2CCCCC2)nc2ccc(NC(=O)c3cccc(Cl)c3)cc12 -18.7%, Cc1ccc(OCC(=O)Nc2nnc(SCc3cc(=O)c4ccccc4[nH]3)s2)cc1 2.11%, CCOc1ccccc1C(=O)Nc1ccc2nc(N(CC)CC)cc(C)c2c1 -2.3%, COc1ccc(NC(=O)c2cc(C3CC3)nc3c2c(C)nn3-c2ccccc2)cc1 -24.2%, COc1ccc(-n2c(=O)c3c4c(sc3n(Cc3ccc(F)cc3)c2=O)CCCC4)c(OC)c1 3.29%, COc1ccccc1NC(=O)C1=C(C)Nc2ncnn2C1c1ccccc1C(=O)O (stereo unspecified) 6.69%, COc1ccc(NC(=O)CSC2=Nc3ccccc3C3=NC(CCC(=O)NC4CCCCC4)C(=O)N23)cc1 (stereo unspecified) 5.93%, CCCS(=O)(=O)N1CC(=O)N(c2ccc(Cl)cc2C)C(C)(C(=O)NC2CCCC2)C1 (stereo unspecified) 7.3%, O=C(CSCc1ccccc1Cl)N1CCN(c2ccc(Cl)cc2)CC1 -5.42%, CCOC(=O)c1cccc(NC(=O)CCn2c(-c3ccc(F)cc3)cc(C(=O)OCC)c2C)c1 -7.89%, Cc1ccc(C(=O)c2cn(CC(=O)Nc3ccc(C)cc3Cl)c3nc(C)ccc3c2=O)cc1 3.57%, Cc1cccc(NC(=O)N2CC(=O)Nc3sc4c(c3C2c2ccccc2)CCCC4)c1C (stereo unspecified) -0.425%, CCOC(=O)C1CCN(C(=O)c2ccc(-n3ccc4ccccc43)s2)CC1 4.44%, Cc1cc(C)cc(-n2c(-c3ccccc3)c(C)n3c4c(=O)n(C)c(=O)n(C)c4nc23)c1 0.597%, CCOc1ccccc1OCCCn1c(-c2ccc(Cl)cc2)nc2ccccc2c1=O -15.1%, Cc1ccc(Cl)cc1N1CCN(C(=O)c2ccc3c(c2)N(Cc2ccc(F)cc2)CCS3)CC1 19.8%, CCOc1cc(CNC(=O)c2ccc3c(c2)NC(=O)C2CCCCN32)cc(OCC)c1OCC (stereo unspecified) 7.89%, CCOC(=O)c1[nH]c(C)c(CCC(=O)Nc2cc(C)ccc2OC)c1C 4.22%, COc1ccc(-c2c3c(=O)n(C)c(=O)n(C)c3c3n2-c2ccccc2NC3c2ccco2)cc1 (stereo unspecified) 5.37%, CCOc1ccc(CCNC(=O)Cn2nc(CC)n3c(cc4ccccc43)c2=O)cc1 -4.33%, Cc1cc(=O)n(CC(=O)N2CCN(c3ccccc3F)CC2)c2c1c(C)nn2C -8.01%

outcome, inactive:
O=C(NC(=O)c1ccc(F)cc1)Nc1ccc(-c2cc(C(F)(F)F)nn2-c2ccccc2)cc1, COc1cccc(C2C=C(c3ccc(C)c(C)c3)Nc3nnnn32)c1OC (stereo unspecified), CCc1ccccc1NC(=O)c1ccc2c(c1)N(Cc1cccc(Cl)c1)C(=O)c1ccccc1S2(=O)=O, Cc1c(-c2nsc(NC(=O)c3ccccc3)n2)nnn1-c1ccc(C(F)(F)F)c(Cl)c1, CCN1C(=O)c2ccccc2Sc2ccc(C(=O)NCCCN(CC(C)C)CC(C)C)cc21, COc1ccccc1CNc1ccc(-c2nc(-c3cccnc3)no2)cc1[N+](=O)[O-], Cc1ccc(C(=O)Nc2ccc(-c3cn4cccnc4n3)cc2)cc1C, Cc1cccc(OCC(=O)N(Cc2cccs2)c2ccc(Cl)cc2)c1C, COc1ccc(C2CC(=O)N(CC(=O)Nc3cc(C)ccc3C)c3ccccc3S2)cc1 (stereo unspecified), COc1ccccc1-c1nnc(SCC(=O)c2ccc(Cl)cc2)n1-c1ccccc1, Cc1ccc(-c2nc3sc(CCNC(=O)c4ccc(Br)o4)c(C)n3n2)cc1, COc1ccccc1CNC(=O)C(NS(=O)(=O)c1cccs1)C(C)C (stereo unspecified), CCCCOc1ccc(C(=O)Nc2cccc(-c3nc4cccnc4s3)c2)cc1, COc1ccc(C2=NN(CC(=O)NCCc3ccc(OC)c(OC)c3)C(=O)CC2)cc1, Cc1ccc(NC(=O)NCCc2c(C)nn(C)c2C)cc1Cl, COc1cccc(CNC(=O)c2cc3c(s2)-c2ccccc2OC3)c1, COc1cc2nc(NC(=O)c3ccc(S(=O)(=O)N4CCOCC4)cc3)sc2cc1OC, COc1c(C)cccc1C(=O)Nc1cccc2ccc(C)nc12, COc1ccc(Cn2ccn(Cc3cccc(OC)c3)c(=O)c2=O)cc1, Cc1cn2c(=O)cc(COC(=O)c3ccc(NC(=O)COc4ccccc4F)cc3)nc2s1, CCc1ccccc1NC(=O)c1cnc(N2CCCCC2)c2ccccc12
